From PubChem BioAssay AID1508623 (National Center for Advancing Translational Sciences (NCATS), 2021) come the findings set out here.

Hit rate of the full screen: of about 48,000 compounds, about 450 (0.94%) were called active. Another 19% or so got no clear call; they are omitted. Calls come from the whole dose curve; as a rule, active = well fitted inhibition curve with a large enough effect; inconclusive = small, poorly fitted or top-dose-only effect; inactive = no such curve, though single readings can be large or run the other way. This is one part of the list.

This assay is described as follows: Primary qHTS for Identification of Small Molecule Inhibitors of Huntingtin Promoter Activity. Note: nearly all actives have a fitted effect of over 50% in size. As to conditions: HEK293 HTT promoter firefly luciferase reporter (activity 0% = vehicle and -100% = no light), 24 h; series mostly up to 57.5 µM; activity change, negative = inhibition: at the top concentration. In short, it runs like this: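 Quantitative HTS used concentration series of up to 57.5 uM final on HEK293 luciferase reporter cells, 24 h at 37 degrees C. Readout was Dual-Glo firefly luminescence.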
For the compound `CNc1ccc(-c2nc(-c3ccncc3)no2)cc1[N+](=O)[O-]`, the “activity change, negative = inhibition” value is inactive: 62%.
To `O=C(NC1CCCCC1)c1ccc2c(c1)N(Cc1cccc(Cl)c1)C(=O)c1ccccc1S2(=O)=O` belongs inactive: -9.59%; to `Cc1ccc(CNc2cc(C)nc3nc(-c4ccc(C)cc4)nn23)cc1`, inactive: -3.85%; to `COC(=O)c1ccccc1NC(=O)CSc1nc2ccccc2nc1Cc1ccc(F)cc1`, inactive: -2.23%.
Consider `Cc1cccc(NC(=O)Cn2c(=O)n(CC3CCC(C(=O)NCCc4ccccc4)CC3)c(=O)c3ccccc32)c1` (stereo unspecified), for which the “activity change, negative = inhibition” value was inactive: -6.92%.
To `Fc1ccc(-c2cc(-c3ccc(F)cc3)c3c(n2)-c2cc(F)ccc2OC3)cc1` belongs inactive: -17.3%; to `Fc1ccc(Nc2nc(-c3cccc(Cl)c3)c3c(n2)-c2ccccc2OC3)c(F)c1`, inactive: -12.8%; to `CCc1ccc(NC(=O)CSc2nc(-c3ccc(C)cc3)nc3c2Cc2c(CO)cnc(C)c2O3)cc1`, inactive: -12.9%.
In the case of `CCOc1ccc2nc(N3CCCC(C(=O)Nc4ccccc4CC)C3)sc2c1` (stereo unspecified) it was inactive: 53.7%.
To `COc1cccc(-c2ccc(NC(=O)C3=C(C(=O)O)CCC3)c(F)c2)c1` belongs inactive: 19.8%.
Take `O=C(O)Cc1ccc2c(c1)C(=O)c1ccccc1CO2`: the “activity change, negative = inhibition” value was inactive: 18.6%.
To `CCc1ccc(-c2nc3cc(NC(=O)c4ccc(C)c(C)c4)ccc3o2)cc1` belongs inactive: 2.27%; to `Cc1c(NC(=O)c2cccs2)cccc1-c1nc2cc(Cl)ccc2o1`, inactive: -15.3%; to `COc1ccc(S(=O)(=O)n2nc(-c3ccco3)nc2NCc2ccc(C(C)C)cc2)cc1`, inactive: -26.7%.
In the case of `CCOc1ccc(C(=O)Nc2ccc(OCc3cc(=O)n4cccc(C)c4n3)cc2)cc1` it was inactive: -10.2%; in that of `CCc1nnc2c3ccccc3nc(Nc3cc(C)cc(C)c3)n12`, inactive: -17%.
To `COc1ccc(S(=O)(=O)NCc2cccn2Cc2cc(C)ccc2C)cc1OC` belongs inactive: -22.8%; to `CC(=O)NCCNC(=O)CCCc1nnc2n(CC(C)C)c(=O)c3sccc3n12`, inactive: -13.7%.
For the compound `Cc1nc2ccccc2n1Cc1ccc(Cl)cc1`, the “activity change, negative = inhibition” value was inactive: -24.6%.
To `COc1cccc(NC(=O)Cn2c(=O)n(Cc3ccc(F)cc3)c(=O)c3sc4ccccc4c32)c1` belongs inactive: -17.4%; to `O=C(CCCCCCNC(=O)c1cnc(N(c2ccccc2)c2ccccc2)nc1)NO`, inactive: 193%.
In the case of `COc1ccc(NC(=O)[C@H](Cc2ccccc2)N2Cc3ccccc3C2=O)cc1OC`, the “activity change, negative = inhibition” value was inactive: -13.4%.
In the case of `COc1cccc(NC(=O)Cn2c(=O)n(Cc3ccc4c(c3)OCO4)c(=O)c3oc4ccccc4c32)c1` it was inactive: 0.13%; in that of `Cc1ccc(-n2ncc(C(=O)NCCN3CCN(C)CC3)c2C2CCN(C(=O)OC(C)(C)C)CC2)cc1C`, inactive: 0.581%; in that of `CC(=O)c1cccc(NS(=O)(=O)c2c(C(=O)N3CCCCCC3)c(C)n(C)c2C)c1`, inactive: -2.12%.
To `CCOc1ccc(CNC(=O)Cn2c(=O)c3cccn3c3cccnc32)cc1` belongs inactive: -10.1%; to `CCc1ccc(CNC(=O)CCn2nc(C)c3c(C)n(-c4ccccc4)nc3c2=O)cc1`, inactive: 7.4%; to `COc1cc(NC(=O)c2noc3c2CC(C)CC3)c(OC)cc1Cl` (stereo unspecified), inactive: 0.637%.
To `O=c1[nH]c(=O)n([C@H]2C[C@@H](O)[C@@H](CO)O2)cc1I` belongs inactive: 23.2%.
As to `COc1ccc(-n2c(SCCC(C)C)nc3sc4c(c3c2=O)CC(C(C)C)OC4)cc1` (stereo unspecified), the “activity change, negative = inhibition” value was inactive: -1.34%.
Take `Cc1nn(CCCC(=O)Nc2ccccc2C(F)(F)F)c(=O)c2nn(-c3ccccc3)c(C)c12`: the “activity change, negative = inhibition” value was inactive: -27.5%.
In the case of `Cc1nn2c(-c3ccccc3)cc(-c3ccccc3)nc2c1-c1ccc(Cl)cc1` it was inactive: 2.82%; in that of `O=C(Nc1ccccc1)c1cccc(N2CCCS2(=O)=O)c1`, inactive: -18.5%; in that of `Cc1cc(C)n2nc(CNC(=O)c3ccc(Cl)cc3)nc2n1`, inactive: 6.8%.
For the compound `COc1ccc(C(CC(=O)Nc2ncccc2C)N2Cc3ccccc3C2=O)cc1OC` (stereo unspecified), the “activity change, negative = inhibition” value is inactive: -12.3%.
As for `Cc1ccc(Cl)cc1N1CCN(C(=O)c2ccc3c(Cl)c4c(nc3c2)CCCC4)CC1`, the “activity change, negative = inhibition” value is inactive: -7.88%.
Take `O=C(Cn1c(=O)ccc2cc(S(=O)(=O)N3CCCC3)ccc21)Nc1ccccc1`: the “activity change, negative = inhibition” value is inactive: -7.85%.
In the case of `COc1ccc(-c2nc(CNC(=O)Nc3ccccc3)c(C)o2)c(OC)c1` it was inactive: -13.6%; in that of `CCn1ccc2c(OCC(=O)Nc3ccc(OC)cc3OC)cccc2c1=O`, inactive: 0%; in that of `O=c1ccc(-c2ccccc2)nn1Cc1c(F)cccc1Cl`, inactive: -21.6%.
Consider `CCn1cc(C(=O)NCCC(C)C)c(=O)c2cc(S(=O)(=O)N(C)C3CCCCC3)ccc21`, for which the “activity change, negative = inhibition” value was inactive: -5.57%.
For the compound `CCC(=O)N1c2ccccc2CC1C(=O)NCCCN1CCN(c2ccc(OC)cc2)CC1` (stereo unspecified), the “activity change, negative = inhibition” value is inactive: 6.42%.
To `CC1CCCCN1c1cc2c(cc1F)c(=O)c(S(=O)(=O)c1ccccc1)cn2Cc1ccccc1` (stereo unspecified) belongs inactive: -12.9%; to `O=C(Cn1c(-c2cccs2)cc2cc(F)ccc21)NCCc1ccc(Cl)cc1`, inactive: -11.8%.
In the case of `CCCCOc1ccc(CNC(=O)c2cnc3sc(N4CCCC4)nn3c2=O)cc1` it was inactive: -8.59%; in that of `Cc1c(Cl)cccc1NC(=O)C(=O)NCCc1csc2nc(-c3ccccc3F)nn12`, inactive: -30.3%.
To `COc1ccccc1Nc1nc(C)nc(N)c1S(=O)(=O)c1ccccc1` belongs inactive: -8.74%; to `Cc1nc2c3cccnc3nn2c(C)c1CCC(=O)NCc1ccccc1`, inactive: -25.1%.
In the case of `CCN(CC)S(=O)(=O)c1ccc2c(c1)nc(CN(C)C(=O)Nc1ccc(C)c(Cl)c1)n2C`, the “activity change, negative = inhibition” value is inactive: -26.6%.
For `Cc1ccc(C)c(NC(=O)c2cc(S(=O)(=O)NCc3ccccc3)ccc2F)c1`, the “activity change, negative = inhibition” value is inactive: -26.6%.
To `COc1ccc(Nc2ncc(C(=O)Nc3cccc(Cl)c3)c3ccccc23)cc1` belongs inactive: -6.1%.
To `CCc1ccc(NC(=O)C(=O)NCC(c2ccc3c(c2)OCO3)N2CCN(C)CC2)cc1` (stereo unspecified) belongs inactive: -15.7%.
To `Cc1ccc(OCC(=O)NCC2(N3CCN(C)CC3)CCCCC2)cc1` belongs inactive: -2.92%; to `CC(C)CCNC(=O)c1cnc2sc(N3CCCCCC3)nn2c1=O`, inactive: -25.9%.
As for `COc1ccc(CNC(=O)c2ccc(Cn3c(=O)c4cccn4c4cccnc43)cc2)c(OC)c1`, the “activity change, negative = inhibition” value is inactive: -2.4%.
In the case of `Cc1ccc(O)c(NC(=O)c2cc(-c3ccc(F)cc3)no2)c1` it was inactive: 30.5%; in that of `COc1ccc(-n2nc3c(N4CCC(C(=O)N5CCC(C)CC5)CC4)nnc(C)c3c2C)cc1`, inactive: -10.9%; in that of `O=C(C1CCC1)N1CCCc2cc(S(=O)(=O)N3CCN(c4cccc(Cl)c4)CC3)ccc21`, inactive: -16.7%.
In the case of `Cc1ccc(C)c(NC(=O)C(=O)NCCCN2CCOCC2)c1`, the “activity change, negative = inhibition” value was inactive: -11.9%.
To `O=C(NCCCN1CCN(c2ccccc2)CC1)c1sc2ncccc2c1-n1cccc1` belongs inactive: -25.4%; to `CCOc1ccc(CCNC(=O)c2cnc3c(-c4ccc(F)cc4)c(C)nn3c2C)cc1`, inactive: -16.1%; to `Nc1ncc(S(=O)(=O)NCc2ccccc2)cn1`, inactive: -3.21%.
Consider `COc1cc(S(=O)(=O)NCCc2c(C)[nH]c3ccc(C)cc23)ccc1Br`, for which the “activity change, negative = inhibition” value is inactive: -20.1%.
To `COc1ccc(C(=O)c2cn(Cc3ccccc3)c3ccccc3c2=O)cc1OC` belongs inactive: -26%; to `COc1ccc(CN(C)c2ccc(-c3nc(-c4ccc(OC)c(OC)c4)no3)cc2[N+](=O)[O-])cc1`, inactive: -5.68%; to `COc1cccc(-c2nnc(SCC(=O)N(C)C3CCCCC3)o2)c1`, inactive: 7.76%.
In the case of `CCOc1ccccc1CNCc1c(C(=O)O)c(C)n(Cc2ccc(C)cc2)c1C` it was inactive: -8.45%.
In the case of `CN1CCc2nc3sc(C(=O)c4ccc(F)cc4)c(N)c3cc2C1` it was inactive: 14.1%; in that of `CN1C(=O)c2cccc3c(S(=O)(=O)Nc4cccc(C(=O)O)c4)ccc1c23`, inactive: -3.11%.
Turning to `CCN(CC)S(=O)(=O)c1ccc(OC)c(NC(=O)c2sc3ccccc3c2Cl)c1`, the “activity change, negative = inhibition” value is inactive: -14.6%.
To `Cc1ccc2c(c1)c1c(c(=O)n(Cc3ccccc3)c(=O)n1Cc1ccccc1F)n2C` belongs inactive: -8.86%; to `Cc1cccc(NC(=O)c2oc3ccccc3c2NC(=O)c2cc(=O)c3ccccc3o2)c1`, inactive: -17.5%.
`CCOc1ccc(N2CC(NC(=O)c3ccc(Cl)cc3)CC2=O)cc1` (stereo unspecified): the “activity change, negative = inhibition” value is inactive: -6.57%.
In the case of `CCOC(=O)N1CCc2c(sc3c2c(=O)n(Cc2ccccc2)c(=O)n3CC(=O)Nc2ccc(F)cc2)C1` it was inactive: -16.4%.
To `NC(CO)(CO)CO` belongs inactive: -1.57%.
To `CNC(=O)CN1C(=O)COc2ccc(S(=O)(=O)N3CCCCCC3)cc21` belongs inactive: 0.572%; to `O=C(CNC(=O)c1ccc(F)cc1)OCc1cc(=O)n2ccsc2n1`, inactive: -3.85%.
On to `COc1ccc(C(=O)Nc2ccc3oc(-c4cccc5c(Br)cccc45)nc3c2)cc1`, for which the “activity change, negative = inhibition” value was inactive: -0.724%.
Take `Cc1c(Cl)cccc1NC(=O)C(=O)NCCc1csc(-c2ccc(C(F)(F)F)cc2)n1`: the “activity change, negative = inhibition” value is inactive: -3.87%.
In the case of `Cc1ccccc1Cn1c(CN2CCC(C(=O)NCc3ccc(Cl)cc3)CC2)cc2ccccc21` it was inactive: 14%; in that of `O=S1(=O)c2ccccc2N(Cc2ccccc2F)c2ccccc21`, inactive: -5.9%; in that of `COc1ccc(CCNC(=O)c2ccc(-n3c(C)cc4c3CCC(C)C4)cc2)cc1OC` (stereo unspecified), inactive: 4.81%.
In the case of `Cc1cc(C)c(OCC(=O)N(Cc2ccc(N(C)C)cc2)Cc2ccco2)c(C)c1` it was inactive: -28.4%.
To `O=C(NCc1ccc2c(c1)OCO2)c1ccc2c(c1)N(Cc1c(F)cccc1Cl)C(=O)c1ccccc1S2` belongs inactive: -18.3%; to `COc1ccc(C(=O)c2cn(CC(=O)Nc3cc(OC)cc(OC)c3)c3ccc(OC)cc3c2=O)cc1`, inactive: -23%; to `COC(=O)c1ccccc1NC(=O)Cn1c(=O)n(CCC(=O)NCc2ccc3c(c2)OCO3)c(=O)c2ccccc21`, inactive: 5.35%.
For the compound `Cc1ccc(Cn2nc3n(c2=O)-c2cc(Cl)ccc2OC3)cc1`, the “activity change, negative = inhibition” value was inactive: -9.32%.
Regarding `COc1ccc(-n2c(-c3cccc(F)c3)nc3c(cnn3-c3ccc(C)cc3)c2=O)cc1`, the “activity change, negative = inhibition” value was inactive: -27.2%.
To `Cc1ccc(-c2csc(-c3c(N)c(C(=O)c4ccc5c(c4)OCO5)n4ccccc34)n2)cc1` belongs inactive: -0.19%; to `CCOC(=O)c1c(S(=O)(=O)N2CCC(C(=O)NCc3cccc(OC)c3)CC2)c(C)n(C)c1C`, inactive: -5.97%.
In the case of `Cc1cccc(N(C)C(=O)Cn2c(=O)oc3cc(S(=O)(=O)N4CCCCC4)ccc32)c1` it was inactive: -0.601%; in that of `COc1ccc(-c2nc3ccccc3o2)cc1NC(=O)Cc1ccc(Cl)cc1`, inactive: 24.5%.
`Cn1ccnc1SCC(=O)Nc1cccc(Br)c1`: the “activity change, negative = inhibition” value is inactive: -2.17%.
Take `NC(=O)c1cc(S(=O)(=O)NCc2cccc(Br)c2)cs1`: the “activity change, negative = inhibition” value was inactive: -34.8%.
To `COC(=O)c1ccc(NC(=O)Cn2c(=O)oc3ccccc32)cc1` belongs inactive: -4.24% [at 11.5 µM]; to `COc1ccc(C2CC(=O)c3cc(-c4nc(-c5cccc([N+](=O)[O-])c5)cs4)c(=O)n(-c4ccccc4N)c3C2)cc1` (stereo unspecified), inactive: -10.8%.
